In PubChem BioAssay AID1030 (National Center for Advancing Translational Sciences (NCATS), 2008):
The whole screen tested about 220,000 compounds, of which about 16,000 (7.3%) were called active. This list was built around the results that the source calls inconclusive (neither active nor inactive); the mix of calls is not that of the screen. Calls follow the shape of the dose curve; as a rule, active = well fitted inhibition curve with a large enough effect (not every such curve was filed as active); inconclusive = small, poorly fitted or top-dose-only effect, or another doubt; inactive = no such curve, though single readings can be large or run the other way. Potencies of inconclusive entries are doubtful fits and often do not repeat.

target: Aldehyde dehydrogenase 1A1 (Homo sapiens) (UniProt P00352); assay: qHTS Assay for Inhibitors of Aldehyde Dehydrogenase 1 (ALDH1A1); conditions: Purified ALDH1A1, NADH fluorescence, propionaldehyde substrate; series mostly up to 75.3 µM;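 as to activity, negative = inhibition: plate controls were no enzyme wells and a reference inhibitor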
Sequence of UniProt P00352 (P00352 whole entry, looked up): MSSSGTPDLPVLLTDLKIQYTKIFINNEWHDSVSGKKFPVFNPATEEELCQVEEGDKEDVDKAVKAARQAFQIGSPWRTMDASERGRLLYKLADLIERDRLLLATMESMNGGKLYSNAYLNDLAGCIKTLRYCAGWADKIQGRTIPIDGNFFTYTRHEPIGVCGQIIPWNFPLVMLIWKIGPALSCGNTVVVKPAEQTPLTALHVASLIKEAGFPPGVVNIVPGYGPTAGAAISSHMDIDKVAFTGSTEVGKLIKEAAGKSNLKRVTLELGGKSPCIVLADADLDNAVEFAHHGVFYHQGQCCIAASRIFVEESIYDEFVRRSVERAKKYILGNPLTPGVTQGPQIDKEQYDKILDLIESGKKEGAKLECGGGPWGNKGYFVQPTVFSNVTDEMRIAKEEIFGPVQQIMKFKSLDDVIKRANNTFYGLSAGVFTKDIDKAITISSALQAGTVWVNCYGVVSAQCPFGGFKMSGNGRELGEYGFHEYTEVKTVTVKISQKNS
Potency is read from the fitted curve at half-maximal effect; tags tell the direction and shape of the fitted curve.

Potency, inconclusive:
COc1ccccc1CN(Cc1cc2cc3c(cc2[nH]c1=O)OCCO3)Cc1nnnn1Cc1ccco1 25.1 µM [inhibitor, partial curve]
COCCCNCCOCCOc1ccc(C)cc1[N+](=O)[O-] 35.5 µM [inhibitor, single point]
Cc1ccc(-c2nnc3c(C(F)(F)F)nc4ccccc4n23)cc1 35.5 µM [inhibitor, single point]
CC(C)CCn1nnnc1C(C(C)C)N1CCC(C(N)=O)CC1 (stereo not given) 35.5 µM [inhibitor, single point]
CCCCN(CCCC)C(=O)c1cc2ccccc2c(=O)o1 20 µM [inhibitor, single point]
CCOC(=O)c1ccc2[nH]c3c(c2c1)CN(C)CC3 39.8 µM [inhibitor, single point]
CN(C)c1ccc(NC(=S)c2ccccn2)cc1 39.8 µM [inhibitor, single point]
Cc1ccc(SCc2cc(=O)n(C)[nH]2)cc1 2.82 µM [inhibitor, partial curve]
Cc1sc2nc(SCC(=O)OC(C)C)n(C)c(=O)c2c1C 39.8 µM [inhibitor, single point]
CCN(CC)CCn1c(C)nc2c(sc3nc4c(cc32)COC(C)(C)C4)c1=O 14.1 µM [inhibitor, partial curve]
O=C(c1ccc(N2CCCCCC2)c([N+](=O)[O-])c1)N1CCc2ccccc21 7.94 µM [inhibitor, partial curve]
COc1ccc(NS(=O)(=O)c2cc(NC(=O)c3ccc(C)o3)ccc2N2CCCCC2)cc1 39.8 µM [inhibitor, single point]
CN(C)c1ccc(/C=N/n2cnn(Cc3ccccc3Cl)c2=S)cc1 28.2 µM [inhibitor, partial curve]
CN1CCN(c2ncc3nc(-c4cccc(C#N)c4)c(=O)n(CCC#N)c3n2)CC1 28.2 µM [inhibitor, partial curve]
O=C(Nc1ccc(Br)cc1)c1ccc(Br)c(S(=O)(=O)Nc2cccnc2)c1 39.8 µM [inhibitor, single point]
O=C(COC(=O)c1cc(-c2cccs2)nc2ccccc12)NCc1ccco1 28.2 µM [inhibitor, partial curve]
COc1ccc(N2C(=O)c3ccccc3NC2c2cccnc2)cc1 (stereo not given) 25.1 µM [inhibitor, single point]
CN(C)CC(=O)Nc1ccc(Oc2ccc(Cl)cc2)cc1 39.8 µM [inhibitor, single point]
O=S(=O)(NCc1ccco1)c1ccc(S(=O)(=O)N2CCCCC2)cc1 22.4 µM [inhibitor, single point]
CSc1nc(N)nc(SCC(=O)C(C)(C)C)c1C#N 39.8 µM [inhibitor, single point]
CCNc1ccc(S(=O)(=O)N(C)C)cc1NCC(=O)Nc1c(F)cccc1F 35.5 µM [inhibitor, single point]
CCOC(=O)CN1C(=O)S/C(=C/c2cccc([N+](=O)[O-])c2O)C1=O 37.7 µM [inhibitor, single point]
CC1Cc2ccccc2N1c1ncnc(N)c1[N+](=O)[O-] (stereo not given) 44.7 µM [inhibitor, single point]
Oc1ccc(NC(=S)Nc2ccc(O)cc2)cc1 10 µM [inhibitor, partial curve, poor fit]
Cc1ccc(NC(=O)CN2CCC(C(=O)c3ccc(F)cc3)CC2)cc1 37.7 µM [inhibitor, single point]
O=C1NCCCC2c3cc(O)c4ccccc4c3OC12N1CCCCC1 (stereo not given) 35.5 µM [inhibitor, single point]
Cc1ccc(N/N=C/c2cccnc2)cc1 39.8 µM [inhibitor, single point]
CCOC(=O)c1sc2nc(C)c([N+](=O)[O-])c(COC)c2c1N 39.8 µM [inhibitor, single point]
COCc1c(C#N)c(NCCc2ccc(F)cc2)nc(C)c1[N+](=O)[O-] 25.1 µM [inhibitor, single point]
CCOc1ccccc1-n1nnnc1SCC(=O)NCc1ccco1 25.1 µM [inhibitor, single point]
COc1ccc(CC(=O)Nc2cc3oc4ccccc4c3cc2OC)cc1 35.5 µM [inhibitor, single point]
CSc1nc(-c2ccccc2)cc(C)c1C#N 31.6 µM [inhibitor, partial curve]
O=C(CC(=O)N/N=C/c1ccccc1O)NCc1cccnc1 39.8 µM [inhibitor, single point]
Cc1cc(O)c(C(C)C)cc1NC(=O)Cn1nc(C)c2ccccc2c1=O 39.8 µM [inhibitor, single point]
Cc1cccc(N=C2NN=C(c3c(C)[nH]c4ccccc34)CS2)c1 25.1 µM [inhibitor, single point]
COc1ccc(C2CC(c3ccccc3)=NN2C(=O)COC(=O)CNC(=O)c2ccccc2)cc1 (stereo not given) 39.8 µM [inhibitor, single point]
CC1=NN(c2ccccc2)C(=O)C1N=Nc1ccc(N)cc1 (stereo not given) 39.8 µM [inhibitor, single point]
COc1ccc(OCc2n[nH]c(=S)n2-c2ccc(C)cc2)cc1 39.8 µM [inhibitor, single point]

Potency, inactive:
COc1ccc2c(c1)C(=O)[C@@H](OC(=O)NCCc1ccc(OC)c(OC)c1)[C@H](c1ccc(OC)c(Br)c1)O2
CCOC(=O)C1CCN(C(=O)CN2C(=O)C(CC)Oc3ccccc32)CC1 (stereo not given)
CCOC(=O)CC(NC(=O)c1cc2cc(Cl)cc(Cl)c2oc1=O)c1cccc([N+](=O)[O-])c1 (stereo not given)
O=C(N/N=C/c1ccco1)c1cc(-c2cccc(Br)c2)nc2ccccc12
CN1CCN(C(=S)SCc2nc(N)nc(Nc3ccc(F)cc3)n2)CC1
CC(=O)Nc1cccc(C(=O)OC(C(=O)c2ccc(C)c(C)c2)c2ccccc2)c1 (stereo not given)
COc1ccc(C(=O)CSc2nc3[nH]ncc3c(=O)[nH]2)cc1
COc1ccc(Nc2nnc(C)c(=O)[nH]2)cc1
Cc1ccc(C(C)C)c(OCc2ccc(-c3nnco3)cc2)c1
Cn1c(=O)c(Nc2ccc(Cl)cc2)c2c3c(cccc31)C(=O)c1ccccc1-2
CC1=CC(=O)C=C(C)C1=NOc1ccc([N+](=O)[O-])cc1
COc1cc2c(cc1OC)C1C(C(=O)Nc3ccccc3N3CCN(C)CC3)c3ccccc3C(=O)N1CC2 (stereo not given)
O=c1cc(O)c2c(=O)n(-c3ccccc3)c3c(c2o1)CCCCC3
CN(C(=O)COC(=O)c1cncc(Br)c1)C1CCS(=O)(=O)C1 (stereo not given)
CC1CCc2c(sc3ncnc(SCC(=O)c4ccccc4)c23)C1 (stereo not given)
CCn1c(SCC(=O)NCc2ccccc2)nc2nc3c(cc2c1=O)CCCC3
Cc1nnc(SCC(=O)NNC(=O)c2ccccc2)n1-c1ccccc1
COc1ccc(CNc2ccnc(-c3c(C)noc3C)n2)c(OC)c1
O=C(Nc1ccccc1)Nc1ccccc1C(=O)NCCCN1CCOCC1
CSc1nc(-c2ccco2)nn1C(=O)c1ccc(Cl)cc1
CCc1ccc(CNC(=O)c2cc3c(C)nc4ccccc4c3o2)cc1
Cc1ccc(/C=C/S(=O)(=O)Nc2ccc(C)cc2)cc1

Potency, active:
O=C(CSc1nnc(CNc2ccccc2)o1)N1CCCc2ccccc21 8.91 µM
COCCOC(=O)C1=C(C)NC(=S)NC1/C=C/c1ccccc1 (stereo not given) 0.794 µM
O=C(NC(=S)Nc1ccc(S(=O)(=O)Nc2ncccn2)cc1)c1cccc(Br)c1 10 µM
CC(=O)NN1C(=O)/C(=C/c2ccc(Br)o2)SC1=S 25.1 µM
CN(Cc1ccccc1)C(=O)CSc1nc2ccccc2c(=O)n1Cc1ccco1 7.94 µM
N#Cc1ccc(NC(=O)CNc2cc(S(=O)(=O)N3CCOCC3)ccc2NCC2CCCO2)cc1 (stereo not given) 17.8 µM
COc1ccc(-c2nc(CSCC(=O)N3CCN(C(=O)c4ccco4)CC3)c(C)o2)cc1OC 20 µM
CC1=CC(C)(C)Nc2ccc(OS(=O)(=O)c3ccc(C)cc3)cc21 1.12 µM
O=S(=O)(N/N=C/c1ccc(N2CCOCC2)cc1)c1ccccc1 10 µM
COC(=O)/C(C#N)=C/c1ccc(OC(=O)c2ccccn2)cc1 3.55 µM
Cn1c(=O)c2c(nc(OCc3cccnc3)n2Cc2ccccc2)n(C)c1=O 10 µM
CN(C)S(=O)(=O)c1ccc(Cl)c(NC(=O)COC(=O)c2ccc3c(c2)NC(=O)CS3)c1 3.55 µM
O=C1NCN(c2ccccc2)C12CCN(c1nnnn1-c1ccccc1)CC2 22.4 µM
COC(=O)c1ccc(N2C(=O)CC(N(C)CCc3ccc(OC)c(OC)c3)C2=O)cc1 (stereo not given) 3.55 µM

activity, negative = inhibition, inactive:
CCOC(=O)CCN1C(=O)[C@H]2[C@H]3[C@H](O)[C@H](O)C/C(=N/OCc4ccccc4)[C@H]3CC[C@@H]2C1=O 9.4% [at 13.5 µM]
